Source: PubChem BioAssay AID1476 (National Center for Advancing Translational Sciences (NCATS), 2009)
Several values for one entry are separate records, joined by “and”; a condition that tells them apart may be missing. Equal entries are not always repeated. Among all 200,000 compounds or so, about 4,500 (2.2%) were called active. This list was built around the results that the source calls inconclusive (neither active nor inactive); the mix of calls is not that of the screen. The call rests on the fitted dose curve; in most records, active means well fitted inhibition curve with a large enough effect; inconclusive means small, poorly fitted or top-dose-only effect, or effect the other way; inactive means flat fitted curve, though single readings scatter. A potency beside an inconclusive call is a rough fit, not a confirmed value.

Molecular target: Cruzipain (Trypanosoma cruzi) (UniProt P25779)
Experiment: qHTS Assay for Promiscuous and Specific Inhibitors of Cruzain (without detergent); further: nearly all actives have a fitted effect of over 40% in size;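 on max response, negative = inhibition: plate controls were enzyme without inhibitor for no effect and buffer without enzyme for full effect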
Details: purified cruzain, Z-FR-AMC fluorescence, no detergent
Summary of the method: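 Purified cruzain at 1.5 nM, pre-incubated 15 min with compound at room temperature in 100 mM sodium acetate pH 5.5, 5 mM DTT, 0.00005% Triton X-100. Reaction started with 2 uM Z-FR-AMC; AMC fluorescence increase over 60 s gives rate.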
Potency means the concentration at half of the fitted maximal effect; tags describe the fitted curve by direction and shape.

Sequence of UniProt P25779 (P25779 whole entry, looked up): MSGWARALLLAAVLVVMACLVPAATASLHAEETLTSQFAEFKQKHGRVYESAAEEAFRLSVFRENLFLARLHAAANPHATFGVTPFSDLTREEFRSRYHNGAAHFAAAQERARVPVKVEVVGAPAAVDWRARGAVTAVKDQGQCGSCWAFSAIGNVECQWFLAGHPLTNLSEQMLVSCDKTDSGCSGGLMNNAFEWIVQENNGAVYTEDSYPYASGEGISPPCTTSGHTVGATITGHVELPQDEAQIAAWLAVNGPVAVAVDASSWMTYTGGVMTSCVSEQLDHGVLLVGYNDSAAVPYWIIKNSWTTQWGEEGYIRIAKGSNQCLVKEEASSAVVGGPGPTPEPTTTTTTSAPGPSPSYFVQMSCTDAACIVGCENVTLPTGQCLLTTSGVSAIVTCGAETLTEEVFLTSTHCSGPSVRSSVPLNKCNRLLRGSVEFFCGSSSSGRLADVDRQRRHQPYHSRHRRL

Structure (SMILES)	Potency	max response, negative = inhibition
O=C(OCC(=O)c1c[nH]c2ccccc12)c1cc2ccccc2cc1O	inconclusive: 39.8 µM [inhibitor, single point]	
O=C(NCc1ccccc1Cl)c1cc2c(s1)-c1ccccc1SC2	active: 25.1 µM	
COCCNC(=O)C(=O)NCC(c1cccnc1)N1CCN(c2ccccc2OC)CC1 (stereo not given)	inconclusive: 39.8 µM [activator, single point]	
Cc1ccc(NC(=O)COC(=O)CNC(=O)c2ccc3ccccc3c2)c([N+](=O)[O-])c1	active: 3.16 µM	
CCCN1C(=O)c2[nH]nc(-c3ccccc3O)c2C1c1cccc(OCc2ccccc2)c1 (stereo not given)	inconclusive: 39.8 µM [inhibitor, single point]	
Cc1cc(CSc2ccccc2)ccc1NC(=O)c1ccc(Br)cc1	inconclusive: 25.1 µM [inhibitor, single point]	
COc1cccc(NC(=O)CSc2nc3c([nH]c4ccccc43)c(=O)n2-c2ccccc2)c1	inconclusive: 15.8 µM [inhibitor, partial curve, poor fit]	
CCOC(=O)N1CCC(NC(=O)c2cc(C(=O)Nc3ccc(OC)c(OC)c3)ccc2CO)CC1	inconclusive: 39.8 µM [activator, single point]	
Cc1ccccc1-c1nnc(CN2CCN(c3cccc(C)c3C)CC2)o1		inactive: 7.73%
CCCCn1c(CN2CCN(c3cccc(Cl)c3)CC2)nc2c1c(=O)[nH]c(=O)n2C	inconclusive: 31.6 µM [activator, single point]	
O=C(OCc1cc2ccccc2[nH]c1=O)c1cccnc1	inconclusive: 39.8 µM [activator, single point]	
Cc1cc(C)c2c(N=NN3CCOCC3)[nH]nc2n1	inconclusive: 25.1 µM [inhibitor, single point]	
COc1ccc(N2CSC3=C(C#N)C(c4cccs4)CC(=O)N3C2)cc1 (stereo not given)	inconclusive: 15.8 µM [inhibitor, partial curve]	
CCN(CC)c1ccc(NC(=O)C(NS(=O)(=O)c2cccs2)C(C)C)c(C)c1 (stereo not given)		inactive: -0.13%
Cc1ccc(-n2c(SCC(=O)NCc3ccco3)nc3sc4c(c3c2=O)CC(C)(C)SC4)cc1	inconclusive: 39.8 µM [inhibitor, single point]	
Cc1cc2c(cc1S(=O)(=O)CCC(=O)NCc1ccccc1)OCC(=O)N2	inconclusive: 31.6 µM [inhibitor, single point]	
COCCOC(=O)C1=C(C)NC(C)=C(C(=O)OC(C)C)C1c1cccc([N+](=O)[O-])c1 (stereo not given)	inconclusive: 39.8 µM [activator, single point]	
COc1ccc(-c2c(C)n([O-])c3c([n+]2=O)CCCC3)c(OC)c1		inactive: -5.74%
COc1cc(NC(=O)COC(=O)CNC(=O)c2ccc(C)cc2)c(C)cc1[N+](=O)[O-]	active: 12.6 µM	
NCCS		inactive: 11.5% and inactive: -5.45% and inactive: -1.91%

Structure (SMILES)	Potency	max response, negative = inhibition
CC(C)CC(COCc1ccc(Cl)cc1)N1CCN(C(=O)c2ccc(C(F)(F)F)cc2)CCC1=O (stereo not given)	inconclusive: 15.8 µM [activator, partial curve]	
CC(C)(C)c1ccc(OCCNC(=S)NC(=O)c2cccnc2)cc1	inconclusive: 39.8 µM [activator, single point]	
Cc1cccc(N2C(=O)CSC23C(=O)N(CC(=O)NCCc2ccccc2)c2ccccc23)c1 (stereo not given)		inactive: 1.08%
CCC(=O)Nc1nnc(SCC(=O)c2ccc3c(c2)Cc2ccccc2-3)s1	active: 20 µM	
CC(=O)c1cc2cc(O)ccc2o1	inconclusive: 39.8 µM [inhibitor, single point]	
Cc1c(-c2nc(-c3ccc4c(c3)[nH]c(=O)n4C)no2)cccc1[N+](=O)[O-]		inactive: -3.97%
O=C(c1ccc(Cl)c([N+](=O)[O-])c1)N(c1ccccn1)c1ccccn1		inactive: -10.1%
O=C(c1cnc(N2CCOCC2)c2ccccc12)N1CCN(c2ccc(F)cc2)CC1	inconclusive: 39.8 µM [activator, single point]	
COc1ccc(C2C=C(c3ccc(C)cc3)Nc3ncnn32)cc1 (stereo not given)	inconclusive: 25.1 µM [activator, single point]	
O=C(CCCn1c(=O)c2sccc2n(Cc2c(F)cccc2Cl)c1=O)NCc1ccccc1		inactive: -19.6%
CN(C)S(=O)(=O)c1ccc(S(=O)(=O)N(CC(=O)Nc2ccccc2)Cc2ccco2)cc1	inconclusive: 39.8 µM [inhibitor, single point]	
Cn1c(=O)c2c(-c3ccccc3Br)n(C(C)(C)C)cc2n(C)c1=O		inactive: -6.9%
CCOC(=O)c1c(C)nc2sc3c(=O)[nH]cnc3c2c1-c1ccc(OC)cc1	inconclusive: 31.6 µM [activator, single point]	
COc1ccc(C2CC(=O)c3cc(-c4nc(-c5cccc([N+](=O)[O-])c5)cs4)c(=O)n(-c4cc(C)cc(C)c4)c3C2)cc1 (stereo not given)		inactive: -18%
COc1ccc(C)cc1N(CC(=O)N1CCC(C)CC1)S(=O)(=O)c1ccc(C)cc1	inconclusive: 39.8 µM [activator, single point]	
Nc1c(C(=O)c2ccc3c(c2)OCO3)sc(Nc2ccccc2F)c1S(=O)(=O)c1ccccc1	inconclusive: 25.1 µM [inhibitor, single point]	
COC(=O)[C@@]1(Cc2ccccc2)[C@H]2c3cc(C(=O)N4CCCC4)n(Cc4c(CO)[nH]cc(C)c4=O)c3C[C@H]2CN1C(=O)c1ccccc1	inconclusive: 31.6 µM [activator, partial curve]	
CCOC(=O)C1CCN(S(=O)(=O)c2c(C)[nH]c(=O)[nH]c2=O)CC1	inconclusive: 39.8 µM [inhibitor, single point]	
CCCCOC(=O)c1ccc(NC(=O)c2ccc3c(c2)CCN3S(=O)(=O)c2ccccc2)cc1	active: 12.6 µM	
Cc1ccc(-c2nc3ccccc3[nH]2)cc1NC(=S)NC(=O)c1ccccc1Br	inconclusive: 39.8 µM [inhibitor, single point]	
